In patent US12448436B2, “Antibody specifically binding to GRP94 or antigen-binding fragment thereof, and uses thereof” (KOOKMIN UNIVERSITY INDUSTRY ACADEMY COOPERATION FOUNDATION, priority 2020, dated 2025):

Tests used:
[1] = Protein aggregation index (UV absorbance 280/340 nm); type: physicochemical; conditions: antibody in PBS; 100×(Abs340/[Abs280−Abs340]); control HCl-aggregated GRP94 antigen
Protocol: To evaluate the production the antibodies (B5, E5, 2H5, and 3G7) of the present disclosure and the antibody aggregation after purification, each of the antibodies was added to PBS and absorbance was read at 280 nm and 340 nm using NanoDrop 2000 (Thermo Fisher Scientific). The protein aggregation index was calculated from UV absorbance according to the following equation. As a control, the GRP94 antigen that was induced by treatment with HCl to aggregate was used. Protein Aggregation Index=100×(Abs340/[Abs280−Abs340]) Equation 1

recombinant human GRP94 = molecular target: T1, recombinant human GRP94 (Homo sapiens, UniProt P14625); test: ELISA binding to recombinant human GRP94; conditions: high specificity stated for human and rat antigens
T1 construct: made in house; host or cells: Expi293 cells (pcDNA 3.4)
Protocol: (§1) Each well of 96-well plates was coated with 0.1 μg of recombinant human GRP94 (rhGRP94), blocked with 3% (w/v) bovine serum albumin (BSA) in phosphate buffered saline (PBS) for 2 hours at 37° C., and incubated with 100 μL of GRP94 targeting IgG (20 μg/mL) for 2 hours at 37° C. The plates were washed thrice with 0.05% PBS-T, and 100 μL of a 500:1 dilution of the secondary antibody anti-human Fc Ab (Sigma-Aldrich) was added to each well. Incubation at 37° C. for 1 hour was followed by three rounds of washing with 0.05% PBS-T. Then, 100 μL of 3,3′,5,5′-tetramethylbenzidine (1-step ultra TMB) substrate solution was added to each well. Finally, optical densities were measured at 450 nm using a microplate reader (Synergy H1, BioTek).
The four GRP94 IgGs (B5, E5, 2H5, and 3G7) of the present disclosure were measured for equilibrium dissociation constant (KD). In this regard, each well of 96-well plates was coated with 100 ng of rhGRP94 and blocked with 3% (w/v) bovine serum albumin (BSA) in PBS at 37° C. for 2 hours. Next, the plates were incubated with a concentration gradient of 0 nM to 500 nM of each clone for the GRP94 IgGs at 37° C. for 2 hours. […]
(§2) After 96-well plates were coated with BSA, recombinant human GRP94, recombinant rat GRP94, and recombinant monkey GRP94, their binding affinity for each antibody (B5, E5, 2H5, or 3G7) was measured by ELISA.

recombinant rat GRP94 = recombinant rat GRP94 (Rattus norvegicus, UniProt Q66HD0); test: ELISA binding to recombinant rat GRP94; conditions: high specificity stated for human and rat antigens
Protocol: as §1, §2

recombinant monkey GRP94 = recombinant monkey GRP94 (Macaca fascicularis, UniProt Q4R520); test: ELISA binding to recombinant monkey GRP94
Protocol: as §1, §2

HCT8 cells = test: In vitro CRC proliferation assay, HCT8; type: cell-based, human; conditions: 20 μg/mL, 72 hours, MOCK 4.8±0.25
Protocol: (§3) The four anti-GRP94 human IgG antibodies B5, E5, 2H5, and 3G7 of the present disclosure were examined in vitro for effect on CRC cell proliferation. […] The culture medium was removed by suction and the cells were washed with 10 mL of phosphate buffered saline (hereinafter PBS). After removal of PBS by suction, the cells were treated 2 mL of TrypLE Express Enzyme at 37° C. for 3 minutes in a 5% CO2 incubator. Thereafter, the cells were added with 8 mL of the culture medium, transferred to 15-mL tube, and centrifuged at 500×g for 5 minutes. After removal of the supernatant, the cells were suspended in the culture medium. From a small portion of the cell suspension, the cells were counted using the Countess II Automated Cell Counter. […] The 96-well plates were mounted on the Incucyte Zoom system. With the microscope magnification set at 4×, images were collected at intervals of 2 hours for 72 hours. From the collected images, cell growth was monitored using the IncuCyte FLR live content imaging system (Essen Bioscience, Ann Arbor, MI, USA).

HCT116 cells = test: In vitro CRC proliferation assay, HCT116; type: cell-based, human; conditions: 20 μg/mL, end point, relative to the control PBS
Protocol: The four anti-GRP94 human IgG antibodies B5, E5, 2H5, and 3G7 of the present disclosure were examined in vitro for effect on CRC cell proliferation. For use in the efficacy assay, the four cetuximab-resistant colorectal cancer cell lines HCT116, HT29, LoVo, and HCT-8 were each grown in a culture medium (HCT116, HCT8, HT29, and LoVo: RPMI1640+10% FBS+1% Penicillin-Streptomycin) at 37° C. in T-75 flask in a 5% CO2 incubator until reaching about 80-90% confluency. The culture medium was removed by suction and the cells were washed with 10 mL of phosphate buffered saline (hereinafter PBS). After removal of PBS by suction, the cells were treated 2 mL of TrypLE Express Enzyme at 37° C. for 3 minutes in a 5% CO2 incubator. Thereafter, the cells were added with 8 mL of the culture medium, transferred to 15-mL tube, and centrifuged at 500×g for 5 minutes. After removal of the supernatant, the cells were suspended in the culture medium. From a small portion of the cell suspension, the cells were counted using the Countess II Automated Cell Counter. […] The 96-well plates were mounted on the Incucyte Zoom system. With the microscope magnification set at 4×, images were collected at intervals of 2 hours for 72 hours. From the collected images, cell growth was monitored using the IncuCyte FLR live content imaging system (Essen Bioscience, Ann Arbor, MI, USA).

HT29 cells = test: In vitro CRC proliferation assay, HT29; type: cell-based, human; conditions: 20 μg/mL
Protocol: as §3

LoVo cells = test: In vitro CRC proliferation assay, LoVo; type: cell-based, human; conditions: 20 μg/mL
Protocol: as §3

[2] = molecular target: T2, rhGRP94 CTD fragment (part 4, Glu 602-Glu 799) (Homo sapiens, UniProt P14625); test: Epitope comparison ELISA, rhGRP94 fragment part 4; type: binding; conditions: antibody 1 μg/mL, 100 ng fragment
T2 construct: Part; 4 (Glu 602-Glu 799) of the human GRP94 gene (Gene ID: 7184); made in house; host or cells: Expi293 expression system (pcDNA 3.4)
Excerpt: To determine which portion (or domain) of the GRP94 protein is bound by the developed antibodies, GRP94 fragments part. 1 and part. 4 were constructed wherein part. 1 was composed of the N-terminal domain (NTD), the Ca^2+ binding domain, the middle domain (MD), and the C-terminal domain (CTD) while part. 4 was derived from part. 1 by cutting off the NTD, the Ca^2+ binding domain, and the MD. In brief, Part. 1 (Asp 22-Glu 799) and Part. 4 (Glu 602-Glu 799) of the human GRP94 gene (Gene ID: 7184) were synthesized and subcloned into pcDNA 3.4 (Invitrogen) mammalian expression vector to finally recombinant DNAs. Using the Expi293 expression system (Invitrogen), the proteins were expressed and purified. The purified antigens part. 1 and part. 4 were analyzed for molecular weight by SDS-PAGE.
Next, ELISA was carried out to examine whether the four antibodies of the present disclosure bind to part 1 and part 4. First, 100 ng of each of the rhGRP94 fragment parts 1 and 4 was fixed to a high binding plate by incubation at 4° C. for 14 hours (overnight binding, 14 hrs). The same amount of BSA was used as a negative control. Then, the plate was blocked with 3% BSA, followed by incubation at 37° C. for 2 hours with 100 μL containing each of the anti-GRP94 antibodies (B5, E5, 2H5, and 3G7) of the present disclosure at a density of 1 μg/mL. […] Absorbance at 450 nm was read.

[3] = system: HCT116 subcutaneous xenograft; test: Tumor growth inhibition by sole administration, colorectal xenograft model; type: in vivo, Balb/c nude mice; conditions: 10 mg/kg intravenous twice per week for six weeks; n=9
Excerpt: For use in assaying in-vivo efficacy of the four antibodies of the present disclosure, a subcutaneous xenograft mouse model was established by injecting the metastatic colorectal cancer cell line HCT116 (5×10^6 cells) into 6-week-old Balb/c nude mice.

[4] = In vivo hepatotoxicity and nephrotoxicity in colorectal xenograft model; set-up: species or system Balb/c nude mice; conditions: mouse, 10 mg/kg
Protocol: To assay the four antibodies of the present disclosure for in vivo hepatotoxicity and nephrotoxicity, the same xenograft model as in Example 11 weighed every week. After six weeks of the experiment, GOT (glutamic oxaloacetic transaminase), GPT (glutamate pyruvate transaminase), and TBIL (total bilirubin) were measured for hepatotoxicity assay while BUN (blood urea nitrogen) and CRE (creatinine) were measured for nephrotoxicity assay. The results are depicted in FIGS. 27a and 27b.

[5] = end point, relative to the control PBS

Sequence of recombinant rat GRP94 (Q66HD0 22-804): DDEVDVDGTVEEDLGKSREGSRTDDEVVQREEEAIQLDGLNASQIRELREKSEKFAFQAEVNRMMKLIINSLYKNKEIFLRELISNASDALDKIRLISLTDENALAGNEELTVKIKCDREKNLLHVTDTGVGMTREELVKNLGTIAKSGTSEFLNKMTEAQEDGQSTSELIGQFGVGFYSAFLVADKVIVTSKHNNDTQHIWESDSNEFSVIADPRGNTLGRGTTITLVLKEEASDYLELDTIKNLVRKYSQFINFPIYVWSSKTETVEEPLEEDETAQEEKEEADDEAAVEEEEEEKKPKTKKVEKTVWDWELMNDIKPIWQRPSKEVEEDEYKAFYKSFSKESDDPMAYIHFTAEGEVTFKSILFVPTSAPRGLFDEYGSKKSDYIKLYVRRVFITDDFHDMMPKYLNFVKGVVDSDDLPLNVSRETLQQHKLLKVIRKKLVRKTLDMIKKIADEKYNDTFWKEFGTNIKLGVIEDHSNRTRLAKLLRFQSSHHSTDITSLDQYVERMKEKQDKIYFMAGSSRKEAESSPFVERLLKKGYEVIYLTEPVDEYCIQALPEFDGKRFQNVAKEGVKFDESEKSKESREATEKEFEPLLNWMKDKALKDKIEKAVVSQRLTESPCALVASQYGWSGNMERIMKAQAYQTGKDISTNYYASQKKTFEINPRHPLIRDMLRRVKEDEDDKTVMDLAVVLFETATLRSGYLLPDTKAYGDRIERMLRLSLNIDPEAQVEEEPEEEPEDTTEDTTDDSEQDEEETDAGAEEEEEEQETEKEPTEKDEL
Sequence of recombinant monkey GRP94 (Q4R520 22-804): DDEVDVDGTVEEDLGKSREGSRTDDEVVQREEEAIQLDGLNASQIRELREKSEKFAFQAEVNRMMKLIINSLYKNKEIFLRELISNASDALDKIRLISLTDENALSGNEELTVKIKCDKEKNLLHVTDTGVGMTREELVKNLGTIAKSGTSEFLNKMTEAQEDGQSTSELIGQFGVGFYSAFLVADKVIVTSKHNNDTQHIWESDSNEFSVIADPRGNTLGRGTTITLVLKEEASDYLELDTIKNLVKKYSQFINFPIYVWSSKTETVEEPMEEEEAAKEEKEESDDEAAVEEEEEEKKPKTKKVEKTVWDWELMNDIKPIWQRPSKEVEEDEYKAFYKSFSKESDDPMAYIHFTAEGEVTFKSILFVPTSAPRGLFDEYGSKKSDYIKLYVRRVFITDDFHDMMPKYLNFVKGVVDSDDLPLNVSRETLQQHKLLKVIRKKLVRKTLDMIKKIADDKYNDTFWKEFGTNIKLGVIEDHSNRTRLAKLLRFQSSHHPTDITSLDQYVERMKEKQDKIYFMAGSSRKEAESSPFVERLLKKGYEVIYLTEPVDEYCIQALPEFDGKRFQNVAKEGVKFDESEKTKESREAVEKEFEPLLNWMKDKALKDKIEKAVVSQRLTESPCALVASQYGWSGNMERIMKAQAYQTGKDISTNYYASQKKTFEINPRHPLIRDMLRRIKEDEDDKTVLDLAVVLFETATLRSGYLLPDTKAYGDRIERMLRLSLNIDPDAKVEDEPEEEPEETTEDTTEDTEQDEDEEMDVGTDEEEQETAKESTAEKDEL
T1 sequence (P14625 22-803): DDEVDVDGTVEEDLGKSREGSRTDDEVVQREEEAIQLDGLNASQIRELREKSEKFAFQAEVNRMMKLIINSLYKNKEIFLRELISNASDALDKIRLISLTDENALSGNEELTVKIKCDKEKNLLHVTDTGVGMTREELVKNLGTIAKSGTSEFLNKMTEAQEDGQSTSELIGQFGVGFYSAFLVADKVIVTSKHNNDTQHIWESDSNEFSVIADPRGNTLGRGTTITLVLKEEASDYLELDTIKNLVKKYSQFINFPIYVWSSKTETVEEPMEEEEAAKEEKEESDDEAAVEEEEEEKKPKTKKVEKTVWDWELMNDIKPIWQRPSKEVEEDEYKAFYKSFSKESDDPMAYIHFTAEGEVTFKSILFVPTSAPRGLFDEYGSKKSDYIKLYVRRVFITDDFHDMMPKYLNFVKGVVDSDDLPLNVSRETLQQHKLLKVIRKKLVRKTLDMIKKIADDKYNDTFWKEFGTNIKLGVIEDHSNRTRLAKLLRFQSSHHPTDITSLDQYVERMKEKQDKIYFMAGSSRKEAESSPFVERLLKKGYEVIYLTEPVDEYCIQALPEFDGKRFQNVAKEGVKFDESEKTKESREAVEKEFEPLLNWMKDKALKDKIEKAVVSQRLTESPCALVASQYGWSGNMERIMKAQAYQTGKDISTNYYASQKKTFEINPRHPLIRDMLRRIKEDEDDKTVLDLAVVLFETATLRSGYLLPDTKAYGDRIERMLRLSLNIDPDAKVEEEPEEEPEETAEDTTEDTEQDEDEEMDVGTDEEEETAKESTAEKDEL
T2 sequence (P14625 602-799): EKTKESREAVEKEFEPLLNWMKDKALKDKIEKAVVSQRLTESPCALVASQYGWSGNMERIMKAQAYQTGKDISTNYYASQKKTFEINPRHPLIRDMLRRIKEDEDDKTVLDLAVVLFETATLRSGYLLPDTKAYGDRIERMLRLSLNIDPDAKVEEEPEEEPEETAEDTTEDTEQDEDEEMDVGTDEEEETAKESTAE

B1: 2H5: anti-GRP94 human IgG antibody; CDRs SEQ ID NOS: 17 to 22, VH SEQ ID NO: 23, VL SEQ ID NO: 24 (antibody, V domains shown)
VH: EVQLLESGGGLVQPGGSLRLSCAASGFTFSGYAMSWVRQAPGKGLEWVSAISHGGSSKYYADSVKGRFTISRDNSKNTLYLQMNSLRAEDTAVYYCAKDLLSPLQSIGSYDDAMDVWGQGTLVTVSS
VL: QSVLTQPPSASGTPGQRVTISCSGSSSNIGSNTVSWYQQLPGTAPKLLIYADNNRPSGVPDRFSGSKSGTSASLAISGLRSEDEADYYCASWDDSLNAYVFGGGTKLTVL
modifications: Amino acid sequence of heavy chain variable of GRP94 2H5; Amino acid sequence of light chain variable of GRP94 2H5
Q: Which results are given for B1?
A: protein aggregation index [1]: low; binding to recombinant human GRP94 (recombinant human GRP94): bind; binding to recombinant rat GRP94 (recombinant rat GRP94): bind; binding to recombinant monkey GRP94 (recombinant monkey GRP94): bind; cell index at the end point (HCT8 cells): 3.98±0.09; cell growth inhibitory ability (HCT116 cells): no statistical significance; cell index at the end point (HT29 cells; 72 hours, MOCK 2.94±0.04): 2.69±0.02; cell growth inhibitory ability (HT29 cells; [5]): statistically significant; cell index at the end point (LoVo cells; 72 hours, MOCK 3.76±0.19): 3.54±0.03; cell growth inhibitory ability (LoVo cells; [5]): no statistical significance; binding to part 4 (Glu 602-Glu 799) [2]: did not bind; tumor growth inhibition compared to PBS [3]: 45%; changes in body weight [4]: no significant changes; changes in serum levels of liver and kidney functional indices (GOT, GPT, TBIL, BUN, and CREA) [4]: no significant changes
